This is an account of results in PubChem BioAssay AID1508624 (National Center for Advancing Translational Sciences (NCATS), 2021).

Screen size: about 48,000 compounds; about 120 (0.25%) were called active. Another 4% or so got no clear call; they are omitted. The call rests on the fitted dose curve; in most records, active means well fitted activation curve with a large enough effect; inconclusive means small, poorly fitted or top-dose-only effect, or another doubt; inactive means no such curve, though single readings can be large or run the other way. Some of the results follow.

The nature of this assay: Primary qHTS for Identification of Small Molecule Activators of Huntingtin-Antisense Promoter Activity. Further: nearly all actives have a fitted effect of over 55% in size. Particulars: HEK293 HTT-AS promoter firefly luciferase reporter (activity 0% = vehicle and -100% = no light), 24 h; series mostly up to 57.5 µM; activity change, positive = activation: at the top concentration. The essentials: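 Firefly luciferase readout (Dual-Glo, 10 min RT) after 24 h, 37 °C compound exposure (final up to 57.5 uM) of HEK293 reporter cells cultured 24 h beforehand; PTC124 at 50 uM final as control inhibitor; activity scaled vehicle 0%, zero RLU -100%.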
For orientation: qHTS replaces the single test concentration by a dilution series.
For the compound `CCSc1ncc(Cl)c(C(=O)N2CCN(c3ccccc3OC)CC2)n1`, the “activity change, positive = activation” value is inactive: -40%.
In the case of `Cc1ccc(C)c(NC(=O)CN(C)S(=O)(=O)c2cccc3nsnc23)c1`, the “activity change, positive = activation” value is inactive: 1.17%.
Regarding `CCN(CC)c1nc2ccccc2nc1C(=O)Nc1ccc(C(C)=O)cc1`, the “activity change, positive = activation” value was inactive: -6.15%.
Regarding `Cc1ccc(-n2nc(C(=O)Nc3ccc(F)cc3F)c3c4ccccc4n(C)c3c2=O)cc1`, the “activity change, positive = activation” value was inactive: -9.54%.
As for `Cc1cccc(N(C)c2nc3ccc(C(=O)c4ccccc4)cc3n3c(C)nnc23)c1`, the “activity change, positive = activation” value was inactive: -49.4%.
As for `CC(C)(C)C1CCc2c(sc(NC(=O)c3cc4ccccc4c(=O)o3)c2C(N)=O)C1` (centres undefined), the “activity change, positive = activation” value was inactive: -1.73%.
In the case of `Cc1ccc(C)c(NC(=O)Cn2c(=O)n(CCC(C)C)c(=O)c3cccnc32)c1`, the “activity change, positive = activation” value is inactive: -15.4%.
As for `COc1ccccc1NC(=O)Cn1cc(S(=O)(=O)Cc2ccccc2)c2ccccc21`, the “activity change, positive = activation” value is inactive: -24.4%.
For the compound `CCCCCOc1ccc(/C=C/C(=O)Nc2sc(C)c(C)c2C(=O)OCC)cc1OC`, the “activity change, positive = activation” value was inactive: 2.13%.
Regarding `O=C(O)Cc1csc(-c2ccc(Cl)cc2)n1`, the “activity change, positive = activation” value was inactive: -5.6%.
Take `CC(=O)c1cccc(NC(=O)C2CCN(S(=O)(=O)c3ccc4c(c3)CCCN4C(C)=O)CC2)c1`: the “activity change, positive = activation” value is inactive: -12.3%.
As to `Cc1ccc(-c2nc(C)c(CCNC(=O)c3cccs3)s2)cc1`, the “activity change, positive = activation” value is inactive: -4.77%.
Regarding `Cc1c(C(=O)OCc2ccccc2)[nH]c2c1C(=O)CC(c1ccc(C(C)(C)C)cc1)C2` (centres undefined), the “activity change, positive = activation” value is inactive: -18.5%.
For the compound `CCc1cccc(NC(=O)c2cc3c(=O)n(Cc4ccccc4)ccc3nc2C)c1`, the “activity change, positive = activation” value is inactive: -38.6%.
As to `C[C@H](NC(=O)c1sccc1OCc1ccc(Cl)cc1)c1ccccc1`, the “activity change, positive = activation” value was inactive: -45.7%.
In the case of `Cc1ccc(CN2CCCn3nc(C(=O)NCCc4ccccc4C)cc3C2=O)cc1`, the “activity change, positive = activation” value is inactive: 3.69%.
On to `CC(C)c1ccc(NC(=O)C2CCN(C(=O)c3ccc(F)cc3)CC2)cc1`, for which the “activity change, positive = activation” value is inactive: -23.2%.
Take `COc1cc(C(=O)Nc2ccccc2-c2nc(-c3ccccc3)no2)cc(OC)c1OC`: the “activity change, positive = activation” value is inactive: 3.87%.
Take `CC(C)CCNC(=O)CN1C(=O)CSc2ccc(S(=O)(=O)N3CCC(C)CC3)cc21`: the “activity change, positive = activation” value is inactive: -17.4%.
For the compound `Cc1ccc2nc(-c3cccs3)c(Nc3c(C)cccc3C)n2c1`, the “activity change, positive = activation” value was inactive: -44.1%.
For `Cc1c(C(=O)NCc2ccc(F)cc2)oc2ccc(S(=O)(=O)N3CCCCC3)cc12`, the “activity change, positive = activation” value is inactive: -20.8%.
Next, `COc1ccc(NC(=O)[C@H]2O[C@@H]3OC(C)(C)O[C@@H]3[C@H]3OC(C)(C)O[C@H]32)c(OC)c1`: inactive: 11%.
As for `CCOC(=O)C1CCCN(c2nc3c(S(=O)(=O)c4ccc(CC)cc4)nnn3c3ccsc23)C1` (centres undefined), the figure is inactive: -19.7%.
As for `Cc1ccc2c(c1)c1c(c(=O)n(-c3cccc(Cl)c3)c(=O)n1CC(=O)NCC1CCCO1)n2C` (centres undefined), the “activity change, positive = activation” value was inactive: -8.42%.
For `Cn1c(=O)[nH]c(=O)c2c1nc(N1CCOCC1)n2Cc1ccccc1`, the “activity change, positive = activation” value was inactive: -23%.
Consider `C=C1C(=CC=C2CCC[C@]3(C)[C@@H]([C@H](C)C=C[C@H](C)C(C)C)CC[C@@H]23)C[C@@H](O)C[C@@H]1O`, for which the “activity change, positive = activation” value was inactive: -21.6%.
As for `CCc1cccc(NC(=O)CCc2nc3cccnc3n2Cc2ccc(OC)cc2)c1`, the figure is inactive: -24.1%; as for `CCOC(=O)Cc1ccc(NC(=O)Nc2c[nH]c(=O)[nH]c2=O)cc1`, inactive: -13.5%.
Regarding `CCN(CC)CCNC(=O)Cn1ncc2c3ccccc3n(Cc3ccc(Cl)cc3)c2c1=O`, the “activity change, positive = activation” value was inactive: 0.0939%.
For the compound `Cc1ccc(-c2csc(-c3nc(-c4ccc(Br)s4)cs3)n2)cc1`, the “activity change, positive = activation” value is inactive: -10.4%.
Take `Cc1ccc(NC(=O)CSc2nc(=O)n(Cc3cccnc3)c3c2CCC3)cc1F`: the “activity change, positive = activation” value was inactive: -39.8%.
As for `CCc1cccc(C)c1NC(=O)c1cc(S(=O)(=O)N(Cc2ccc(C(=O)OC)cc2)Cc2ccc(OC)c(OC)c2)ccc1F`, the figure is inactive: -13.8%; as for `Cc1ccccc1C(=O)N1CC/C(=N\OS(=O)(=O)O)c2ccc(Cl)cc21`, inactive: 0.282%.
Consider `Cc1ccccc1Oc1nc2ccccn2c(=O)c1/C=C(\C#N)c1nc2ccccc2[nH]1`, for which the “activity change, positive = activation” value is inactive: -3.54%.
As for `COc1ccc(NC(=O)CN2C(=O)CC(c3ccc(C)c(C)c3)=Nc3ccccc32)cc1OC`, the “activity change, positive = activation” value is inactive: 23.1%.
Regarding `COc1ccc(Cc2nc3ccc(C(=O)NCc4ccccc4C)cc3o2)cc1`, the “activity change, positive = activation” value is inactive: -14%.
As for `CCC(CC)C(=O)Nc1ccc2nc(SCC(=O)N3CCCC3)sc2c1`, the “activity change, positive = activation” value was inactive: -21.3%.
As for `CCOc1ccc(NC(=O)C(Cc2ccccc2)NS(=O)(=O)c2ccc3c(c2)oc(=O)n3C)cc1` (centres undefined), the “activity change, positive = activation” value is inactive: -12.8%.
In the case of `Cc1c(Cl)cccc1-c1ccc(CNCCSc2nnnn2-c2ccccc2)o1`, the “activity change, positive = activation” value was inactive: 4.36%.
Next, `COc1ccccc1C(=O)Nc1ccc2nc(SCC(=O)N(C)c3ccccc3)sc2c1`: inactive: -42.6%.
As to `CCS(=O)(=O)c1ncc(N(Cc2ccccc2)Cc2ccco2)c(C(=O)Nc2cccc(Cl)c2C)n1`, the “activity change, positive = activation” value is inactive: -24%.
Next, `CCN(CC)S(=O)(=O)c1ccc(NC(=O)CN(c2ccccc2)S(=O)(=O)N(C)C)cc1`: inactive: -16.5%; `CCOc1ccc(NC(=O)c2c(Nc3ccccc3C)sc(C(=O)c3ccccc3)c2N)cc1`: inactive: -27.8%; `O=C(CN1C(=O)C2(SCC(=O)N2c2cccc(Cl)c2)c2ccccc21)NCCc1ccccc1` (centres undefined): inactive: -34.3%.
Take `CCOc1ccc(CNC(=O)c2ccc3c(c2)c(C)c(C)n3Cc2ccccc2)cc1OC`: the “activity change, positive = activation” value is inactive: -12%.
Next, `Cc1ccc(-n2ncc(C(=O)N3CCN(c4cc(Cl)ccc4C)CC3)c2C2CCN(C(=O)OC(C)(C)C)CC2)cc1`: inactive: 0.14%; `COc1ccc(CCNC(=O)c2ccc3c(c2)N(Cc2ccccc2)C(=O)c2ccccc2S3=O)cc1OC` (centres undefined): inactive: -21.6%.
With `COC(=O)c1ccc(Cl)cc1NC(=O)Nc1nnc(N2CCCC2)s1`, the “activity change, positive = activation” value was inactive: 0.75%.
In the case of `Cc1ccc(C)c(Cn2c3ccccc3c3cnn(CC(=O)NC(C)CCc4ccccc4)c(=O)c32)c1` (centres undefined), the “activity change, positive = activation” value is inactive: -29.3%.
Next, `Fc1ccc(C(c2nnc(-c3ccccc3)o2)N2CCN(c3cccc(Cl)c3)CC2)cc1` (centres undefined): inactive: -17.8%; `COc1ccc(CN2C(=O)C(NC(=O)c3cccc(C)c3)(C(F)(F)F)N=C2c2ccccc2)cc1` (centres undefined): inactive: -24%; `Cn1c2ccccc2c2cnn(CC(=O)NCCCN3CCCCC3)c(=O)c21`: inactive: -5.53%.
With `CCOc1ccc(NC(=O)CSc2cn(CCNC(=O)c3ccccc3F)c3ccccc23)cc1`, the “activity change, positive = activation” value was inactive: -19%.
Consider `CCc1ccccc1NC(=O)CSc1nncn2c1cc1oc(C)cc12`, for which the “activity change, positive = activation” value was inactive: -32.4%.
With `CCOC(=O)C(CC)n1nnc2sc(-c3ccccc3)cc2c1=O` (centres undefined), the “activity change, positive = activation” value is inactive: 4.73%.
As for `O=C(NCCS(=O)(=O)N1CCN(c2ccc(F)cc2)CC1)C(c1ccccc1)c1ccccc1`, the figure is inactive: -16.9%; as for `CC(=O)c1cccc(NC(=O)CSc2nnc3ccc(-c4ccc(Br)cc4)nn23)c1`, inactive: -4.76%; as for `Cc1ccc2oc(=O)c3cnn(CC(=O)N4CCN(c5ccc(F)cc5)CC4)c3c2c1`, inactive: -7.6%.
In the case of `CC(C)Oc1ccccc1-c1nc(SCC(=O)c2ccc(F)cc2)n[nH]1`, the “activity change, positive = activation” value was inactive: -23.3%.
